Results as given in PMC4081100.
Only a part is listed here, and it is no random draw. For some of these results: At the low end of the ranking, values are background and their order means little. The list shows a part of the results. For some of these results: The source does not settle which construct or isoform was used.

How the values were obtained:
Assay in all cases: universal protein binding microarray (PBM)
Details in all cases: transcription factors of Arabidopsis thaliana; high values mean tight binding; most listed sequences are background and not binding sites; double strand, one strand shown
[1] = target: T1, GST-ANAC092(1-176) (UniProt Q9FKA0)
T1 sequence: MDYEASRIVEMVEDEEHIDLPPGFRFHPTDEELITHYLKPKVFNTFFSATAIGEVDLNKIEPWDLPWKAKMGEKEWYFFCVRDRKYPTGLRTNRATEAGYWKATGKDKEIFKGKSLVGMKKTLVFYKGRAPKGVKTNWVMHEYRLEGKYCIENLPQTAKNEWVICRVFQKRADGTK

[2] = target: T2, GST-ANAC055(1-171) (UniProt Q9LDY8)
T2 sequence: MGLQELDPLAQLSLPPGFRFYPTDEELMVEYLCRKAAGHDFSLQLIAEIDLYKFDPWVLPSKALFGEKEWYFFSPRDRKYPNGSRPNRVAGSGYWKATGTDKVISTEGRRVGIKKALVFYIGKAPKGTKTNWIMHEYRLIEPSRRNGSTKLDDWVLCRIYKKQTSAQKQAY

[3] = target: T3, GST-ATAF1 NAC domain (UniProt Q39013)
T3 sequence: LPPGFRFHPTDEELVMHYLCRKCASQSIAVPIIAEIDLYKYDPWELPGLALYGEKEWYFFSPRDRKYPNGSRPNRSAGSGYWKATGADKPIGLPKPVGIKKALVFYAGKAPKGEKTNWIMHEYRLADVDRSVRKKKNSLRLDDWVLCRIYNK

[4] = target: T4, GST-NAP(1-166) (UniProt O49255)
T4 sequence: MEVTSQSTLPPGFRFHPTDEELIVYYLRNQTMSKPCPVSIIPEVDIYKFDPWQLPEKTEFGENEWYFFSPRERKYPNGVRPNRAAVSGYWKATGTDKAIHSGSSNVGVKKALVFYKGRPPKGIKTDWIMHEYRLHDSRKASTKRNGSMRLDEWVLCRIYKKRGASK

[5] = target: T5, GST-NST2(1-184) (UniProt Q9M274)
T5 sequence: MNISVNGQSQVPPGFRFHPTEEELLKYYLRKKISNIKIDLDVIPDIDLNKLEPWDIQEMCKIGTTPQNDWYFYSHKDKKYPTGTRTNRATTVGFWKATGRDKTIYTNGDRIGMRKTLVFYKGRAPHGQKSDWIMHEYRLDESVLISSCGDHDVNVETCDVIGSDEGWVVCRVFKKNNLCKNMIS

[6] = target: T6, GST-NTL8 NAC domain (UniProt Q9XIN7)
T6 sequence: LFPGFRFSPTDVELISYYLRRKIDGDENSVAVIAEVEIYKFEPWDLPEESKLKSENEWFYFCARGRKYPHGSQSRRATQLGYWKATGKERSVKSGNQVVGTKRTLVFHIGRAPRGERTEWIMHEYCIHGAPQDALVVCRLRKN

[7] = target: T7, GST-VND3 NAC domain (UniProt Q9FH59)
T7 sequence: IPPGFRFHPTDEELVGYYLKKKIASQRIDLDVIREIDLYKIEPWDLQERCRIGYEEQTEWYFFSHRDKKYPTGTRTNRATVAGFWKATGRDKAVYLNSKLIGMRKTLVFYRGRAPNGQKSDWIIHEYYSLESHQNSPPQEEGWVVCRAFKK

[8] = target: T8, GST-VND7 NAC domain (UniProt Q9C8W9)
T8 sequence: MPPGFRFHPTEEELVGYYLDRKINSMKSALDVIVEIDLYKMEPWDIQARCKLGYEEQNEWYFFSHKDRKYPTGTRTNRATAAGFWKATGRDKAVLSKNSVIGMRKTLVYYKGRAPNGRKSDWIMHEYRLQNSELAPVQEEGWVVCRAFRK

[9] = target: T9, GST-VOZ2 (Arabidopsis thaliana) (UniProt Q9SLB9)
T9 sequence: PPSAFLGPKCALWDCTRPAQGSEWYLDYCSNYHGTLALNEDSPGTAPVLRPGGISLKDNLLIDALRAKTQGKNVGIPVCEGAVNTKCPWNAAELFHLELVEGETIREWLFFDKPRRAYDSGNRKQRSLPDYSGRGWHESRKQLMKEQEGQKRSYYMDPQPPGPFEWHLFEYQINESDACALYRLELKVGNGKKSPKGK

[10] = target: GST-WRKY1(266-371) (UniProt Q9SI37)
[11] = target: GST-NTL6(1-168) (UniProt Q9SCK6)
[12] = target: T10, GST-ANAC092(1-285) full length (UniProt Q9FKA0)
T10 sequence: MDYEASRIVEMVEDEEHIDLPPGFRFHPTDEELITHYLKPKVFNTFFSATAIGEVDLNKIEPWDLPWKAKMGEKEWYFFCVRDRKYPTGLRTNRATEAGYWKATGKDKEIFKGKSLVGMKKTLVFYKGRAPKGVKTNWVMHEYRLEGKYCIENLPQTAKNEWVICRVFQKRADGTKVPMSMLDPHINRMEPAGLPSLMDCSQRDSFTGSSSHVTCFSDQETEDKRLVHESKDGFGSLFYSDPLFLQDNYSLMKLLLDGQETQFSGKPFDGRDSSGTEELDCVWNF

[13] = target: T11, GST-ANAC019 NAC domain (UniProt Q9C932)
T11 sequence: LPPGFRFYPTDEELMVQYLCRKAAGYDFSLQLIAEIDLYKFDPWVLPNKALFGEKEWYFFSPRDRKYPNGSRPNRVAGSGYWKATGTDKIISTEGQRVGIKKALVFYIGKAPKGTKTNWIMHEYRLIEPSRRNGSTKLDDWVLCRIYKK

Sequence | binding signal [1] [E-score] | binding signal [2] [E-score] | binding signal [3] [E-score] | binding signal [4] [E-score] | binding signal [5] [E-score] | binding signal [6] [E-score] | binding signal [7] [E-score] | binding signal [8] [E-score] | binding signal [9] [E-score] | binding signal [10] [E-score] | binding signal [11] [E-score] | binding signal [12] [E-score] | binding signal [13] [E-score]
AGGTAAGG | 0.0372 | -0.0267 | 0.0332 | -0.0174 | 0.0194 | 0.424 | -0.0612 | 0.0475 | 0.0855 | -0.0049 |  |  | 
CACGCCAG |  | -0.00392 | 0.000215 | -0.0276 | 0.0167 | -0.111 | 0.0346 | -0.0421 | 0.0297 | -0.151 | -0.139 | 0.429 | 
TGAAGTAA |  | 0.155 |  | -0.00923 | 0.324 |  | 0.131 | 0.132 | 0.124 | -0.0561 | 0.377 |  | -0.00485
AGGAAATC |  | -0.0369 | 0.0317 | -0.143 |  |  | 0.0183 | 0.0422 | -0.0373 | -0.00653 | 0.102 | -0.00696 | -0.0325
CTAAGGAA | 0.125 | -0.0236 | 0.023 | -0.172 |  | 0.246 | 0.0301 | -0.0226 | -0.0612 | -0.135 |  | 0.128 | -0.00551
GGGGAAAC |  | 0.0243 | -0.00334 |  | 0.00636 |  | 0.00387 | -0.00353 | 0.0778 | -0.19 | 0.17 |  | 0.152
GCGTCAAA | 0.0197 | -0.0567 | -0.00573 | -0.129 | 0.052 |  | -0.0309 |  | 0.107 | 0.409 | -0.0227 |  | -0.0785
CTAGCGTA |  |  | 0.0437 |  |  | -0.0396 | 0.0384 |  | 0.0593 | -0.0942 | -0.11 | 0.398 | 0.0321
GTCAAACA | 0.0319 | -0.00752 | -0.0339 | -0.0469 | 0.048 | 0.0043 | -0.00865 |  | 0.0199 | 0.475 | -0.0277 | 0.11 | 0.0368
CTTTCCTC |  |  | 0.0155 | -0.0664 | 0.026 |  | 0.0465 |  | 0.0823 | 0.036 | 0.104 | -0.0374 | 0.0599
CGAAGCAA | 0.243 | 0.0101 | 0.00551 | -0.00226 |  |  | 0.0366 |  | 0.0109 | -0.031 | 0.325 | 0.271 | 0.0274
ATTACGTG | 0.457 |  | 0.372 | 0.419 |  |  | 0.446 |  | 0.138 | 0.127 |  |  | 
